Out of some 390,000 compounds screened, about 17,000 (4.4%) were called active. The inconclusive results got no clear call from the source; some entries with a clear call stand among them for comparison. Calls come from the whole dose curve; as a rule, active = well fitted inhibition curve with a large enough effect; inconclusive = small, poorly fitted or top-dose-only effect; inactive = no such curve, though single readings can be large or run the other way. Where the call is inconclusive, the potency comes from a doubtful curve fit.
Each molecule was assayed against Lysine-specific demethylase 4A (Homo sapiens) (UniProt O75164) (assay: qHTS Assay for Inhibitors of JMJD2A-Tudor Domain). Conditions: AlphaScreen JMJD2A-Tudor / H3K4me3 peptide binding; activity change, negative = inhibition: at 114 µM (top of the series).
UniProt O75164, sequence (O75164 whole entry, looked up, the tested form may be a part): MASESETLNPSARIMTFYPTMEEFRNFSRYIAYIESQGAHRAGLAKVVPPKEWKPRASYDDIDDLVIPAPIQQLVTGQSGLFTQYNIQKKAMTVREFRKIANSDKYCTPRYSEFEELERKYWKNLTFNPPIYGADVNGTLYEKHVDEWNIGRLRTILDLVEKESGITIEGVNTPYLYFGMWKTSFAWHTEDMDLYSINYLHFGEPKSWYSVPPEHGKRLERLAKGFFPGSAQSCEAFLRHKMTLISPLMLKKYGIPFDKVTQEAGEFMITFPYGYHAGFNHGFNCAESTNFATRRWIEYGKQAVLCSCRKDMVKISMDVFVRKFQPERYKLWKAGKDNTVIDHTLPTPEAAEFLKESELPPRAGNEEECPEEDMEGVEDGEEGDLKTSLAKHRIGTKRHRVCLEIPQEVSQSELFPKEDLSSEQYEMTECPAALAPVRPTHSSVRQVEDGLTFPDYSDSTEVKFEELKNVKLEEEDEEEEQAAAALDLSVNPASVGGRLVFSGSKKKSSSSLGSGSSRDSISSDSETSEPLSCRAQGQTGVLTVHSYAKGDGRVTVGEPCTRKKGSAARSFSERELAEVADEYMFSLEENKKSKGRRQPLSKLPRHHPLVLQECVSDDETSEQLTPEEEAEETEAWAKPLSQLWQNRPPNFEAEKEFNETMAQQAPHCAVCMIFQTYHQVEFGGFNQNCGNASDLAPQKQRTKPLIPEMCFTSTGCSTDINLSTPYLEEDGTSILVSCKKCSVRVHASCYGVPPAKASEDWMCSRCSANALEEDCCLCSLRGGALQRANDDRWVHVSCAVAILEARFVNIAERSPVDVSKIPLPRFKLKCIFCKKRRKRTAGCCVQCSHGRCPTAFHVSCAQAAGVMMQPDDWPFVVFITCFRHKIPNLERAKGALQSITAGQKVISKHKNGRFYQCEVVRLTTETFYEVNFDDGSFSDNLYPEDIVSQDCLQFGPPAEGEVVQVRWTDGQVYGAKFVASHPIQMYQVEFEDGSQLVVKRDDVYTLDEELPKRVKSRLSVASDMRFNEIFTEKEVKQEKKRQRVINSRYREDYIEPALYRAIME
`CCc1ccc([C@@H]2CC=C(C(=O)O)[C@H](c3ccccc3)N2S(=O)(=O)c2ccc(C)cc2)cc1` was tested, and the “activity change, negative = inhibition” value was inactive: -9.29%. With `O=C(NCc1ccc(N2CCCC2=O)cc1)c1ccc(F)cc1` the Potency was inconclusive: 56.2 µM [inhibitor, partial curve]. For `Cc1cccnc1NC(=O)CSc1ncnc2sc(C)c(C)c12`, the Potency was inconclusive: 35.5 µM [inhibitor, partial curve, poor fit]. For `Cc1cc(C)n(-c2ccc(-n3ccnc3)nn2)n1`, the Potency was inconclusive: 89.1 µM [inhibitor, single point]. In the case of `CCCCn1c(/N=C/c2ccc(N(C)C)cc2)nc2ccccc21`, the Potency is reported as inconclusive: 56.2 µM [inhibitor, partial curve]. With `Cc1ccc(C)c(OCC(=O)NNC(=O)CSC(=S)N2CCCC2)c1` the “activity change, negative = inhibition” value was inactive: -8.28%. With `COc1ccc(N2C(=O)C(Cl)=C(Nc3ccccc3O)C2=O)cc1` the Potency was active: 44.7 µM. For `Cc1nc(-c2ccc(F)cc2)sc1CCNC(=O)Cc1ccc(F)cc1`, the “activity change, negative = inhibition” value was inactive: -25.2%. `Cc1c(C(=O)NCCN(C)C)oc2c1-c1nn(Cc3cccc(Cl)c3)cc1CC2` was tested, and the “activity change, negative = inhibition” value was inactive: -4.93%. With `Cc1ccccc1-c1noc(-c2ccccc2OCC(=O)Nc2cccc([N+](=O)[O-])c2)n1` the Potency was inconclusive: 50.1 µM [inhibitor, partial curve]. For `COc1ccc(-n2nc3c(c2NC(=O)c2ccc4c(c2)OCO4)CS(=O)(=O)C3)cc1`, the “activity change, negative = inhibition” value was inactive: -20%. In the case of `COc1ccc(NC(=O)CSc2ccccc2)c([N+](=O)[O-])c1`, the Potency is reported as inconclusive: 35.5 µM [inhibitor, full curve, poor fit]. In the case of `N#Cc1c(-c2ccccc2)cc(-c2ccccc2)nc1SCC(O)CS(=O)(=O)Cc1ccc(Cl)cc1` (stereo not given), the Potency is reported as inconclusive: 56.2 µM [inhibitor, partial curve]. In the case of `COc1cccc(C(=O)N2CCN(Cc3ccco3)CC2)c1OC`, the Potency is reported as inconclusive: 0.794 µM [inhibitor, full curve, poor fit]. For `COc1ccc(-n2nc([N+](=O)[O-])c(=NCc3ccco3)n2O)cc1`, the Potency was inconclusive: 79.4 µM [inhibitor, single point]. For `CCOC(=O)C1=C(O)C(=O)N(c2ccc(S(N)(=O)=O)cc2)C1c1ccc(OC)cc1OC` (stereo not given), the Potency was inconclusive: 89.1 µM [inhibitor, partial curve]. In the case of `Cc1cc(C(=O)C(C)Cl)c(C)n1Cc1ccco1` (stereo not given), the Potency is reported as active: 50.1 µM. `CN(CC(=O)Nc1ccccc1Cl)C(=O)Cn1cnc2ccc(Cl)cc2c1=O` was tested, and the Potency was inconclusive: 89.1 µM [inhibitor, single point]. `CCOc1ccc(-n2ccnc2SCC(=O)N2CCCc3ccccc32)cc1` was tested, and the Potency was inconclusive: 39.8 µM [inhibitor, single point]. With `Cn1c(SCC(=O)N2CCCC2)nnc1-c1ccc2c(c1)OCO2` the “activity change, negative = inhibition” value was inactive: -0.758%. For `COc1ccc(C2C(C(C)=O)=C(C)Nc3ncnn32)cc1[N+](=O)[O-]` (stereo not given), the Potency was active: 89.1 µM. For `CCOC(=O)c1c(-c2ccccc2)oc2ccc(O)c(CN3CCN(C)CC3)c12`, the “activity change, negative = inhibition” value was inactive: -27.2%. For `C=CCN1C(=O)/C(=C\c2ccco2)C(C(=O)OC)=C1C`, the Potency was inconclusive: 39.8 µM [inhibitor, full curve, poor fit]. For `COc1ccc2c(c1)CC/C(=C\c1ccc(C)o1)C2=O`, the Potency was inconclusive: 39.8 µM [inhibitor, partial curve]. In the case of `CC(C)CC(=O)NC1(C(F)(F)F)C(=O)Nc2c1c(=O)n(C)c(=O)n2C` (stereo not given), the “activity change, negative = inhibition” value is reported as inactive: -6.81%. For `CCN(CC)c1ccc(N=Cc2ccc(N(CC)CC)cc2O)cc1`, the Potency was active: 39.8 µM. In the case of `Cc1ccc(NC2=C(Cl)C(=O)c3ccccc3C2=O)cc1`, the Potency is reported as inconclusive: 1.41 µM [inhibitor, full curve, poor fit]. For `O=C(O)CC(C(=O)O)c1ccc(OCCCCOc2ccc(C(CC(=O)O)C(=O)O)cc2)cc1` (stereo not given), the Potency was inconclusive: 89.1 µM [inhibitor, single point]. For `Clc1ccc(-c2ccc(C=Nc3ccc(N4CCOCC4)cc3)o2)c(Cl)c1`, the Potency was inconclusive: 89.1 µM [inhibitor, partial curve]. For `O=C(c1ccc(N2CCOCC2)cc1)N1CCCC(Nc2ccccc2)C1` (stereo not given), the Potency was inconclusive: 22.4 µM [inhibitor, full curve, poor fit]. For `CC[C@]12c3[nH]c4cc(-c5ccco5)ccc4c3CCN1C(=O)[C@@H](CC(=O)NC/C=C(\C)CCC=C(C)C)C[C@@H]2C(=O)N1CCN(C(=O)c2ccco2)CC1`, the Potency was inconclusive: 25.1 µM [inhibitor, full curve]. `O=C(NCc1ccco1)c1ccccc1Nc1ccc(F)cc1` was tested, and the Potency was inconclusive: 89.1 µM [inhibitor, single point]. With `CC(C)(C)NCCOCCOc1ccccc1-c1ccccc1` the Potency was active: 1.78 µM. `NC(N)=Nc1nc2ccccc2o1` was tested, and the Potency was active: 12.6 µM. With `Cc1c(Cl)cccc1NC(=S)N=Nc1c(O)n(CN2CCOCC2)c2ccccc12` the Potency was inconclusive: 50.1 µM [inhibitor, single point].

From PubChem BioAssay AID504339 (National Center for Advancing Translational Sciences (NCATS), 2011)
% is set by controls: 0 for no effect and ±100 for the full control effect; potency is the fitted concentration of half-maximal effect; tags give direction and shape of the fitted curve.
Note: nearly all actives have a fitted effect of over 50% in size.
